Laboratory results reported in ChEMBL document CHEMBL1201862, “PubChem BioAssay data set” (2004).
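Growth conditions: 96-well plates. Treatment: test compound, 48 hours, 5 concentrations. Analysis: linear interpolation between bracketing concentrations; unreached endpoints set to highest concentration. GI50: concentration for 50% inhibition of growth.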 Activity calls are given as the source filed them. Cut-off read from the data, not from the text of the source: active = GI50 up to about 1.1 µM and inactive = higher.

Experiments:
Assay in all cases: DTP human tumour cell line panel, 48 h
NCI-H226 = tested on: NCI-H226
UACC-257 = tested on: UACC-257
CCRF-CEM = tested on: CCRF-CEM
HCC 2998 = tested on: HCC 2998
HT-29 = tested on: HT-29
MCF7 = tested on: MCF7
OVCAR-3 = tested on: OVCAR-3
Hs-578T = tested on: Hs-578T
A498 = tested on: A498
U-251 = tested on: U-251
HCT-116 = tested on: HCT-116
SF-539 = tested on: SF-539
NCI-H23 = tested on: NCI-H23
RXF 393 = tested on: RXF 393
SF-295 = tested on: SF-295
HOP-62 = tested on: HOP-62
K562 = tested on: K562
PC-3 = tested on: PC-3
CAKI-1 = tested on: CAKI-1
Malme-3M = tested on: Malme-3M
NCI-H460 = tested on: NCI-H460
NCI-H522 = tested on: NCI-H522
A549 = tested on: A549
SK-MEL-2 = tested on: SK-MEL-2
SK-MEL-28 = tested on: SK-MEL-28
OVCAR-8 = tested on: OVCAR-8
HCT-15 = tested on: HCT-15
OVCAR-4 = tested on: OVCAR-4
IGROV-1 = tested on: IGROV-1
EKVX = tested on: EKVX
UACC-62 = tested on: UACC-62
SW-620 = tested on: SW-620
COLO 205 = tested on: COLO 205
HL-60 = tested on: HL-60
MDA-MB-231 = tested on: MDA-MB-231
MDA-MB-435 = tested on: MDA-MB-435
MOLT-4 = tested on: MOLT-4
SN12C = tested on: SN12C
RPMI-8226 = tested on: RPMI-8226
SF-268 = tested on: SF-268
SNB-75 = tested on: SNB-75
ACHN = tested on: ACHN
SK-MEL-5 = tested on: SK-MEL-5
LOX IMVI = tested on: LOX IMVI
SK-OV-3 = tested on: SK-OV-3
HOP-92 = tested on: HOP-92
M14 = tested on: M14
BT-549 = tested on: BT-549
DU-145 = tested on: DU-145
TK-10 = tested on: TK-10
MDA-N = tested on: MDA-N
OVCAR-5 = tested on: OVCAR-5
SNB-19 = tested on: SNB-19
KM12 = tested on: KM12

Question: Which results are given for `O=C(/C=C/c1ccccc1)Nc1ccccc1Cl` [N-(2-CHLOROPHENYL)CINNAMAMIDE]?
Answer: GI50 (NCI-H226): inactive: > 100 µM; GI50 (UACC-257): inactive: > 100 µM; GI50 (CCRF-CEM): inactive: > 100 µM; GI50 (HCC 2998): inactive: 36.6 µM; GI50 (HT-29): inactive: > 100 µM; GI50 (MCF7): inactive: 4.11 µM; GI50 (OVCAR-3): inactive: 86.3 µM; GI50 (Hs-578T): inactive: 16.5 µM; GI50 (A498): inactive: > 100 µM; GI50 (U-251): inactive: 59.8 µM; GI50 (HCT-116): inactive: > 100 µM; GI50 (SF-539): inactive: 48.4 µM; GI50 (NCI-H23): inactive: > 100 µM; GI50 (RXF 393): inactive: 48 µM; GI50 (SF-295): inactive: 42.1 µM; GI50 (HOP-62): inactive: 35.1 µM; GI50 (K562): inactive: 94.8 µM; GI50 (PC-3): inactive: 97.1 µM; GI50 (CAKI-1): inactive: > 100 µM; GI50 (Malme-3M): inactive: > 100 µM; GI50 (NCI-H460): inactive: > 100 µM; GI50 (NCI-H522): inactive: 8.24 µM; GI50 (A549): inactive: > 100 µM; GI50 (SK-MEL-2): inactive: > 100 µM; GI50 (SK-MEL-28): inactive: > 100 µM; GI50 (OVCAR-8): inactive: 83.4 µM; GI50 (HCT-15): > 100 µM; GI50 (OVCAR-4): inactive: 44.9 µM; GI50 (IGROV-1): inactive: 41.1 µM; GI50 (EKVX): inactive: 56.4 µM; GI50 (UACC-62): inactive: > 100 µM; GI50 (SW-620): inactive: > 100 µM; GI50 (COLO 205): inactive: > 100 µM; GI50 (HL-60): inactive: 8.04 µM; GI50 (MDA-MB-231): inactive: 35.9 µM; GI50 (MDA-MB-435): inactive: > 100 µM; GI50 (MOLT-4): inactive: 33.7 µM; GI50 (SN12C): inactive: > 100 µM; GI50 (RPMI-8226): inactive: 27.5 µM; GI50 (SF-268): inactive: > 100 µM; GI50 (SNB-75): inactive: 35.8 µM; GI50 (ACHN): inactive: 72.4 µM; GI50 (SK-MEL-5): inactive: 95.7 µM; GI50 (LOX IMVI): inactive: > 100 µM; GI50 (SK-OV-3): inactive: 46.6 µM; GI50 (HOP-92): inactive: 23.7 µM; GI50 (M14): inactive: > 100 µM; GI50 (BT-549): inactive: > 100 µM; GI50 (DU-145): inactive: 94.8 µM; GI50 (TK-10): inactive: > 100 µM; GI50 (MDA-N): inactive: > 100 µM; GI50 (OVCAR-5): inactive: > 100 µM; GI50 (SNB-19): inactive: > 100 µM; GI50 (KM12): inactive: 70.8 µM
